The values that follow come from the RNAGym collection of RNA variant scans (doi:10.1073/pnas.2313332121).

This sample is rich in variants without activity.

B1: TPR 5TU (parent)
chain: GGAUCUUCUCGAUCUAACAAAAAAGACAAAUCUGCCACAAAGCUUGAGAGCAUCUUCGGAUGCAGAGGCGGCAGCCUUCGGUGGCGCGAUAGCGCCAACGUUCUCAACUAUGACACGCAAAACGCGUGCUCCGUUGAAUGGAGUUUAUCAUG

Variants of B1 are the subject of the series. Description: polymerase ribozyme fitness, log enrichment relative to wild type (log ratio); higher = more active; in vitro selection for triplet polymerase activity. The gist of the method: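 Only genotypes with ≥10 input reads and ≥1 read per output were kept after Illumina sequencing of input and output libraries. These libraries were PCR-built, transcribed mutants of each subunit of a heterodimeric triplet polymerase ribozyme, each put through one triplicate in vitro selection round with frozen incubation at −7 °C, gel excision of extended constructs, streptavidin-bead capture and RT-PCR. Fitness is a logarithmic ratio of genotype enrichment to wild-type enrichment, from inverse-variance-weighted replicate averages, with the logarithm in base 2.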
For the variant G50A U61C G92C, the “polymerase ribozyme fitness (log ratio)” value was at most -4.2. In the case of G50U C95A U102G U111A, the “polymerase ribozyme fitness (log ratio)” value was at most -4.2. Take G50C U55A C96G A107C: the “polymerase ribozyme fitness (log ratio)” value was at most -4.2. Then G50C G68A A121G, with at most -4.2. Then G50A A60C G62A C76U C96U G100U C108G, with at most -4.2; and G50C G74C A120G G124U G126A, with at most -4.2. Turning to G50C U90A, the “polymerase ribozyme fitness (log ratio)” value is at most -4.2. On to G50C A120U U151A, for which the “polymerase ribozyme fitness (log ratio)” value was at most -4.2.

With G50C C75U C93G A115G, the “polymerase ribozyme fitness (log ratio)” value was at most -4.2. With A49U G67A C95U C114G A142C the figure was at most -4.2; with G50U A52G C85A U109A G143U, at most -4.2.

For G50C C85U U127A, the “polymerase ribozyme fitness (log ratio)” value was at most -4.2. Then G50C A89U G94U C96U A115G, with at most -4.2; and G50U G70A G136U, with at most -4.2; and A49U G59A A122U, with -0.783. Then G50C U61A G62U A142C, with -2.79. Then G50C U82G G92C U102G U139G, with at most -4.2; and G50C A73C C93G A97G A115C A138G, with at most -4.2; and G50U U53G G81A C93U C103G G128U, with at most -4.2.

For the variant A49U G80A, the “polymerase ribozyme fitness (log ratio)” value is -3.76. Take G50A A64C C95G C114U: the “polymerase ribozyme fitness (log ratio)” value is at most -4.2. Then G50C G86A G88U C125G G133C G141A, with at most -4.2; and G50A U55G G80C, with at most -4.2. Then G50C G81C C96G C99G, with at most -4.2. With G50C C76A A89U G94U G100U the figure was at most -4.2; with G50A G62A A91C C93G A120U, at most -4.2.

Regarding G50U G84A U148G, the “polymerase ribozyme fitness (log ratio)” value is at most -4.2.

In the case of G50A C96G, the “polymerase ribozyme fitness (log ratio)” value was -1.55.

Regarding G50U U56G G68U, the “polymerase ribozyme fitness (log ratio)” value is at most -4.2. With G50A C79G C103G the figure was at most -4.2. With G50U C96G the figure was -0.544.

On to G50A U56A U101A U111C, for which the “polymerase ribozyme fitness (log ratio)” value was at most -4.2. With G50C C87U G100A the figure was at most -4.2; with G50C A73G G84A, -4.1. On to G50A C54U C57A G84U C103G G124C G133U G141C, for which the “polymerase ribozyme fitness (log ratio)” value was at most -4.2.

For A49U U55C U56A A73U C93U G117C, the “polymerase ribozyme fitness (log ratio)” value was at most -4.2. Turning to G50A U55A A91U U135C, the “polymerase ribozyme fitness (log ratio)” value was at most -4.2.

C51A A52G U56G C79A: the “polymerase ribozyme fitness (log ratio)” value is at most -4.2. Take G50C A52C C105A C125A A142C U146A: the “polymerase ribozyme fitness (log ratio)” value was at most -4.2. Then A49U G58C, with -0.846. Then G50U G83A A97U A98U, with 0.0748. With G50U A89U C93U C99U U145A the figure was -3.4. As for G50A C87G G100A A107G, the “polymerase ribozyme fitness (log ratio)” value is at most -4.2. Turning to G50U A122G U148A, the “polymerase ribozyme fitness (log ratio)” value was -3.37. Consider G50U G70A C93G C116A G140A, for which the “polymerase ribozyme fitness (log ratio)” value is at most -4.2. In the case of G50A A66C C69G G84U G88A, the “polymerase ribozyme fitness (log ratio)” value is at most -4.2. Then G50A G68A G71U U77A C87U G143A, with at most -4.2.

On to G50U U102A A142U, for which the “polymerase ribozyme fitness (log ratio)” value is -2.57. Then C51A A89C C93U G117U A137U A150C, with at most -4.2; and G50A G58C C99A, with at most -4.2. Then G50A C95U C116U, with -1.99. With G50C U56C C87G A89C G100C A120G C125U the figure was at most -4.2. Consider G50A A66G U77A C96G U134G A137C, for which the “polymerase ribozyme fitness (log ratio)” value was at most -4.2. With G50A A66G the figure was -3.75. G50U G62C C75U G86U U109A A147U: the “polymerase ribozyme fitness (log ratio)” value is at most -4.2.

Consider G50A C76A U82A G128A U139C, for which the “polymerase ribozyme fitness (log ratio)” value was at most -4.2. Take G50C U53A C63G G88U A110U U144G: the “polymerase ribozyme fitness (log ratio)” value is at most -4.2. Consider G50C A110G A120U, for which the “polymerase ribozyme fitness (log ratio)” value was at most -4.2. As to G50A C57U C76U C125U A142C U144G A150G, the “polymerase ribozyme fitness (log ratio)” value was -3.98. With G50C C87U A113C C116A G143U U145C, the “polymerase ribozyme fitness (log ratio)” value is at most -4.2.

As to G50U G84A G92A A113U A137G U146A, the “polymerase ribozyme fitness (log ratio)” value was at most -4.2. Then G50C C57U C76A C85U, with at most -4.2; and G50U C57A C72U G84A, with -0.724; and G50A C79A, with at most -4.2. With G50U A106G the figure was 0.264; with A49U G50A C85G C116G A121U, -1.16; with G50U C95G U104A, -1.95. Consider G50A G80A C96A C132A U144A, for which the “polymerase ribozyme fitness (log ratio)” value is at most -4.2. Then G50C G74A C87U C116A, with at most -4.2; and G50A C85G U127G, with at most -4.2. With G50C A91C C131A the figure was at most -4.2; with G50C G70A A89U A120G A121G, at most -4.2; with G50A C87A A137G, at most -4.2. Then G50C U56A, with -2.92; and G50C G65C G67C, with at most -4.2. As to G50C G68A A91U C96G G100A G124C G141C, the “polymerase ribozyme fitness (log ratio)” value was at most -4.2. Then G50A G58A C87G C103A A119C, with at most -4.2; and G50U U55G C75A A97G A137U U151A, with at most -4.2. With G50C G67C G68C, the “polymerase ribozyme fitness (log ratio)” value was at most -4.2.

On to G50A G136U, for which the “polymerase ribozyme fitness (log ratio)” value was -2.96. For the variant G50A C54U C85U G92U U148A, the “polymerase ribozyme fitness (log ratio)” value was at most -4.2. With G50C G59C G62A G68C C95U U148C the figure was at most -4.2. For the variant G50C A120U A121C, the “polymerase ribozyme fitness (log ratio)” value is -2.61.
